Reference: PubChem BioAssay AID485281 (National Center for Advancing Translational Sciences (NCATS), 2010)
The campaign covered roughly 350,000 compounds. About 260 (0.074%) were called active. The shares of active, inactive and inconclusive entries below differ from those in the screen. Calls come from the whole dose curve; as a rule, active = well fitted inhibition curve with a large enough effect; inconclusive = small, poorly fitted or top-dose-only effect; inactive = no such curve, though single readings can be large or run the other way. Where the call is inconclusive, the potency comes from a doubtful curve fit.

Target: Ferritin light chain (Equus caballus) (UniProt P02791)
UniProt P02791, sequence (P02791 whole entry, looked up): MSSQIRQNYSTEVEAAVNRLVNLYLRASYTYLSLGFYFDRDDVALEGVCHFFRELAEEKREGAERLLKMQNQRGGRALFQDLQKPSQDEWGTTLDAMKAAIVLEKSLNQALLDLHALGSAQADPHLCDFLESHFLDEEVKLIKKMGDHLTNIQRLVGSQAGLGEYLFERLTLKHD
Assay: qHTS Assay for Identification of Novel General Anesthetics; note: nearly all actives have a fitted effect of over 20% in size
Conditions: apoferritin/1-aminoanthracene competitive binding, fluorescence; activity change, negative = displacement: at 77.5 µM (top of the series)
Summary of the method: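 10 uM apoferritin + 50% sat. 1-AMA, PBS; cpd 10 min RT; Ex380/Em535 endpoint; normalized to free probe vs complex; 4-param Hill fit; propofol titration as pos. ctrl.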
% is set by controls: 0 for no effect and ±100 for the full control effect; potency is the fitted concentration of half-maximal effect; tags give direction and shape of the fitted curve.

**Q.** How did the Potency turn out when O=C(Oc1ccccc1-c1nnco1)c1ccc(Cl)cc1 was run?
**A.** inconclusive: 25.1 µM [inhibitor, partial curve]

**Q.** For O=C(NCCOc1ccccc1)c1cc2ccccc2o1, which Potency is on record?
**A.** inconclusive: 31.6 µM [inhibitor, partial curve]

**Q.** With Cc1cccc(-c2cccc(NC(=O)C3CCCN(C(=O)c4ocnc4C)C3)c2)c1 (stereo not drawn) as the molecule, how does the Potency read?
**A.** inconclusive: 39.8 µM [inhibitor, single point]

**Q.** NS(=O)(=O)c1ccc(NC(=O)CSc2nc3ccccc3nc2N2CCOCC2)cc1 was tested. Which Potency did it give?
**A.** inconclusive: 28.2 µM [inhibitor, single point]

**Q.** Which Potency does the source give for CCCCCC(=O)Nc1nc(C)c(-c2csc(Nc3cc(Cl)ccc3C)n2)s1 here?
**A.** inconclusive: 28.2 µM [inhibitor, partial curve]

**Q.** Cc1ccc(NC(=O)CSc2nc3nc(C)cc(C)c3c(=O)[nH]2)cc1 was tested. Which Potency did it give?
**A.** inconclusive: 10 µM [inhibitor, full curve]

**Q.** How did the “activity change, negative = displacement” value turn out when CCn1cc(C(=O)NCC(OC)OC)c(=O)c2cc(S(=O)(=O)N3CCOCC3)ccc21 was run?
**A.** inactive: -8.26%

**Q.** COc1ccc2oc(C(=O)C3CC3)c(N)c2c1 was tested. Which “activity change, negative = displacement” value did it give?
**A.** inactive: -7.16%

**Q.** For Cc1cc(C)nc(SCc2cc(=O)c(OC(=O)c3cccc([N+](=O)[O-])c3)co2)n1, which Potency is on record?
**A.** inconclusive: 35.5 µM [inhibitor, partial curve]

**Q.** CCCc1cc(=O)[nH]c(SCC(=O)c2cc(C)n(C3CC3)c2C)n1 was tested. Which Potency did it give?
**A.** inconclusive: 17.8 µM [inhibitor, partial curve]

**Q.** Which Potency does the source give for CC(=O)N1CCN(c2ccc([N+](=O)[O-])cc2)CC1 here?
**A.** inconclusive: 28.2 µM [inhibitor, single point]

**Q.** Which Potency does the source give for COc1ccc(CC2(CO)CCN(Cc3cccnc3)CC2)cc1 here?
**A.** inconclusive: 20 µM [inhibitor, partial curve]

**Q.** For FC(F)(F)c1cccc(N2Cc3ccccc3C2)c1, which Potency is on record?
**A.** inconclusive: 39.8 µM [inhibitor, single point]

**Q.** With COc1cccc(NC(=O)c2csc3c2CCCC3)c1 as the molecule, how does the Potency read?
**A.** inconclusive: 25.1 µM [inhibitor, partial curve]

**Q.** For O=C(c1ccc(F)cc1)N1CCCN(c2nc(-c3ccccc3)ns2)CC1, which “activity change, negative = displacement” value is on record?
**A.** inactive: -1.04%

**Q.** With COc1ccc(-c2nn(-c3ccc(F)cc3)c3c2cnc2cc4c(cc23)OCO4)cc1 as the molecule, how does the “activity change, negative = displacement” value read?
**A.** inactive: 40.6%

**Q.** With CCc1ccccc1NC(=O)CSc1nc2n[nH]c(C)c2c(=N)n1-c1cccc(C)c1 as the molecule, how does the Potency read?
**A.** inconclusive: 35.5 µM [inhibitor, single point]

**Q.** With CCCCCCC(=O)Nc1nc(C)c(-c2csc(Nc3ccccc3OC)n2)s1 as the molecule, how does the Potency read?
**A.** inconclusive: 25.1 µM [inhibitor, partial curve]

**Q.** Which “activity change, negative = displacement” value does the source give for CC(=O)N1CCC(C(=O)Nc2ccccc2)(N(Cc2ccccc2)C(=O)c2cccnc2)CC1 here?
**A.** inactive: -2.61%

**Q.** How did the Potency turn out when Cc1cc(C)cc(NC(=O)C2CCN(C(=O)c3cnn(-c4ccccc4)c3-n3cccc3)CC2)c1 was run?
**A.** inconclusive: 12.6 µM [inhibitor, partial curve]

**Q.** Which Potency does the source give for CCOc1nc(NC(=O)NS(=O)(=O)Oc2cccc(Cl)c2)nc(-c2ccccc2)n1 here?
**A.** inconclusive: 31.6 µM [inhibitor, single point]

**Q.** Cc1cccc(OCCCC(=O)Nc2nnc(C3CCCO3)s2)c1C (stereo not drawn) was tested. Which “activity change, negative = displacement” value did it give?
**A.** inactive: -3.97%

**Q.** How did the “activity change, negative = displacement” value turn out when CS(=O)(=O)N(CC(=O)Nc1ccc(CC#N)cc1)c1ccc(C23CC4CC(CC(C4)C2)C3)cc1 was run?
**A.** inactive: -11.6%

**Q.** With CCC(C(=O)Nc1ccccc1)n1nc(-c2cc(C)ccc2C)ccc1=O (stereo not drawn) as the molecule, how does the Potency read?
**A.** inconclusive: 31.6 µM [inhibitor, partial curve]

**Q.** Which Potency does the source give for COc1ccc(/C=C/C(=O)OCC(=O)NCCC2=CCCCC2)cc1S(=O)(=O)N1CCOCC1 here?
**A.** inconclusive: 25.1 µM [inhibitor, partial curve]

**Q.** With Cc1ccc(CN2C(=O)C(=O)c3cc(Br)cc(C)c32)cc1 as the molecule, how does the Potency read?
**A.** inconclusive: 31.6 µM [inhibitor, partial curve]

**Q.** How did the Potency turn out when CCN(C(=O)c1cc2c(=O)n(CC)c3ccccc3c2s1)c1cccc(C(F)(F)F)c1 was run?
**A.** inconclusive: 4.47 µM [inhibitor, full curve]

**Q.** For CC1C(=NO)C(C)C(c2ccccc2)NC1c1ccccc1 (stereo not drawn), which Potency is on record?
**A.** inconclusive: 28.2 µM [inhibitor, partial curve]

**Q.** For CC(C)=CCc1c(O)c(CC=C(C)C)c2occ(-c3ccc(O)cc3)c(=O)c2c1O, which Potency is on record?
**A.** inconclusive: 20 µM [inhibitor, partial curve]

**Q.** Which Potency does the source give for NC(=O)C1CCN(c2ccc(C(F)(F)F)cn2)CC1 here?
**A.** inconclusive: 31.6 µM [inhibitor, single point]

**Q.** With N#CC(c1ccc(Cl)cc1)c1cccc(Cl)n1 (stereo not drawn) as the molecule, how does the Potency read?
**A.** inconclusive: 39.8 µM [inhibitor, single point]

**Q.** For CCOc1ccc(-c2nnc(SCC(=O)NC(C)CC)nc2-c2ccc(OCC)c(OC)c2)cc1OC (stereo not drawn), which Potency is on record?
**A.** inconclusive: 28.2 µM [inhibitor, single point]

**Q.** For NNC(=O)CSCc1ccc(Cl)cc1Cl, which Potency is on record?
**A.** inconclusive: 28.2 µM [inhibitor, partial curve]

**Q.** With O=C(N/N=C/c1ccc2c(c1)OCO2)c1cccc2ccccc12 as the molecule, how does the “activity change, negative = displacement” value read?
**A.** inactive: -6.76%

**Q.** COc1ccc(-c2nc(CCNC(=O)c3c(F)cccc3Cl)cs2)cc1 was tested. Which Potency did it give?
**A.** inconclusive: 31.6 µM [inhibitor, partial curve, poor fit]

**Q.** With CCOc1ccc(NC(=O)C(c2ccccn2)N(C(=O)CCl)c2ccc(OC)cc2)cc1 (stereo not drawn) as the molecule, how does the “activity change, negative = displacement” value read?
**A.** inactive: -5.84%

**Q.** With N#C/C(=C/c1ccc(N2CCCCC2)o1)c1cccc(F)c1 as the molecule, how does the Potency read?
**A.** inconclusive: 31.6 µM [inhibitor, partial curve]

**Q.** How did the Potency turn out when Cc1nc(SCC(N)=O)[nH]c(=O)c1Cc1ccc(OC(C)C)cc1 was run?
**A.** inconclusive: 39.8 µM [inhibitor, partial curve]

**Q.** For CCc1ccc2oc(-c3cccc(NC(=O)C(C)(C)Oc4ccc(Br)cc4)c3)nc2c1, which “activity change, negative = displacement” value is on record?
**A.** inactive: -8.87%

**Q.** How did the activity change, negative = displacement turn out when CCC(C)N1CCN(C(=O)C2CCN(S(=O)(=O)c3c(C)noc3/C=C/c3ccco3)CC2)CC1 (stereo not drawn) was run?
**A.** inconclusive: -30.1% [inhibitor]

**Q.** Which Potency does the source give for CCCOc1ccc(CNC(=O)Cn2cc3c(n2)-c2c(oc(C(=O)N4CCOCC4)c2C)CC3)cc1 here?
**A.** inconclusive: 31.6 µM [inhibitor, single point]

**Q.** How did the Potency turn out when COc1cccc(NC(=O)COC(=O)CCCc2c[nH]c3ccccc23)c1 was run?
**A.** inconclusive: 39.8 µM [inhibitor, partial curve]

**Q.** How did the Potency turn out when CCc1ccc(C2=Nn3c(nnc3-c3cccs3)SC2)cc1 was run?
**A.** inconclusive: 28.2 µM [inhibitor, partial curve]

**Q.** With COc1cccc(N2C(=O)CSC23C(=O)N(CC(=O)Nc2cccc(Cl)c2)c2ccccc23)c1 (stereo not drawn) as the molecule, how does the “activity change, negative = displacement” value read?
**A.** inactive: -11.1%

**Q.** Which Potency does the source give for COc1cc(C(=O)NCC2CCCO2)ccc1OCc1ccccc1 (stereo not drawn) here?
**A.** inconclusive: 25.1 µM [inhibitor, partial curve]

**Q.** CCn1c(C)c(C)c2cc(C(=O)N3CCN(c4cccc(C)c4C)CC3)ccc21 was tested. Which Potency did it give?
**A.** inconclusive: 7.94 µM [inhibitor, single point]

**Q.** COc1cc(N(C)C)cc(CN(C)CCc2ccc([N+](=O)[O-])cc2)c1O was tested. Which “activity change, negative = displacement” value did it give?
**A.** inactive: -20.1%

**Q.** CCc1nc2ccc(C(=O)Nc3ccc(NC(C)=O)cc3)cc2nc1CC was tested. Which “activity change, negative = displacement” value did it give?
**A.** inactive: -0.803%

**Q.** CC#CCCC(=O)N1C=Cc2ccccc2C1C#N (stereo not drawn) was tested. Which Potency did it give?
**A.** inconclusive: 39.8 µM [inhibitor, partial curve]

**Q.** Cc1cc(SCc2ccccc2Cl)nc(=O)[nH]1 was tested. Which Potency did it give?
**A.** inconclusive: 28.2 µM [inhibitor, partial curve]

**Q.** How did the Potency turn out when CCC(=O)Nc1ccc2nc(SCc3ccccc3)sc2c1 was run?
**A.** inconclusive: 31.6 µM [inhibitor, partial curve, poor fit]

**Q.** Which “activity change, negative = displacement” value does the source give for CCC1(C)Cc2c(sc3nc(NC)n(C)c(=O)c23)CO1 (stereo not drawn) here?
**A.** inactive: -15.6%

**Q.** CSc1ccccc1C(=O)C1CCCN(S(=O)(=O)N(C)C)C1 (stereo not drawn) was tested. Which Potency did it give?
**A.** inconclusive: 35.5 µM [inhibitor, partial curve]

**Q.** For COc1ccc(C)cc1NC(=O)CSc1nc(=O)[nH]c2c1CCCC2, which Potency is on record?
**A.** inconclusive: 5.62 µM [inhibitor, full curve]

**Q.** How did the Potency turn out when CCC(C(=O)OC(C)C(=O)Nc1ccc(Cl)cn1)c1ccccc1 (stereo not drawn) was run?
**A.** inconclusive: 17.8 µM [inhibitor, partial curve]

**Q.** With Cc1ccc2c(COC(=O)c3n[nH]c4ccccc34)cc(=O)oc2c1 as the molecule, how does the Potency read?
**A.** inconclusive: 17.8 µM [inhibitor, partial curve]

**Q.** Cc1cccc(N2CCN(C(=O)CCC(=O)NNc3nc4ccccc4c4nc(C)nn34)CC2C)c1 (stereo not drawn) was tested. Which Potency did it give?
**A.** inconclusive: 22.4 µM [inhibitor, partial curve]

**Q.** O=C(Cn1cnc2ccccc2c1=O)N1CCN(Cc2ccccc2)CC1 was tested. Which “activity change, negative = displacement” value did it give?
**A.** inactive: -4.78%

**Q.** Which Potency does the source give for CN(Cc1c(F)cccc1Cl)C(=O)c1cc2ccccc2o1 here?
**A.** inconclusive: 35.5 µM [inhibitor, partial curve]

**Q.** With CC(=O)Nc1ccc(S(=O)(=O)NCc2ccc(C(=O)NCc3ccc4c(c3)OCO4)cc2)cc1 as the molecule, how does the Potency read?
**A.** inconclusive: 28.2 µM [inhibitor, partial curve]

**Q.** Which “activity change, negative = displacement” value does the source give for COc1ccc(-c2nc3c(C#N)c[nH]n3c2NC2CCCC2)cc1 here?
**A.** inactive: -2.54%

**Q.** For Cc1ccc(N2CC(c3nnc(Cc4ccccc4Cl)o3)CC2=O)cc1 (stereo not drawn), which Potency is on record?
**A.** inconclusive: 50.1 µM [inhibitor, single point]

**Q.** How did the “activity change, negative = displacement” value turn out when CCCCNCCOCCOc1ccc(F)cc1 was run?
**A.** inactive: -6.36%

**Q.** Which “activity change, negative = displacement” value does the source give for COc1ccc(N(CC(=O)Nc2ccc3c(c2)OCO3)S(=O)(=O)c2ccc(C)cc2)cc1OC here?
**A.** inactive: 0.0407%

**Q.** Which Potency does the source give for CC(C)[C@H](N[C@@H](C)c1ccccc1)c1c(O)ccc2ccccc12 here?
**A.** inconclusive: 28.2 µM [inhibitor, partial curve]

**Q.** How did the Potency turn out when COc1ccc2c(C)cc(SCC#N)nc2c1 was run?
**A.** inconclusive: 22.4 µM [inhibitor, partial curve]

**Q.** With CC(=O)Nc1ccc(S(=O)(=O)N2CCC(n3cnc4cc(F)ccc43)CC2)cc1 as the molecule, how does the Potency read?
**A.** inconclusive: 39.8 µM [inhibitor, single point]

**Q.** For O=C(Nc1ccon1)C(Sc1ccccc1)c1ccccc1 (stereo not drawn), which Potency is on record?
**A.** inconclusive: 39.8 µM [inhibitor, single point]
